This passage reports AlphaScreen luminescence signal results from the supplement of paper PMC12423691.

To fix the notation:
B1: ZNF41, P51814 (protein)
chain: MAANGDSPPWSPALAAEGRGSSCEVRRERTPEARIHSVKRYPDLSPGPKGRSSADHAALNSIVSLQASVSFEDVTVDFSKEEWQHLDPAQRRLYWDVTLENYSHLLSVGYQIPKSEAAFKLEQGEGPWMLEGEAPHQSCSGEAIGKMQQQGIPGGIFFHCERFDQPIGEDSLCSILEELWQDNDQLEQRQENQNNLLSHVKVLIKERGYEHKNIEKIIHVTTKLVPSIKRLHNCDTILKHTLNSHNHNRNSATKNLGKIFGNGNNFPHSPSSTKNENAKTGANSCEHDHYEKHLSHKQAPTHHQKIHPEEKLYVCTECVMGFTQKSHLFEHQRIHAGEKSRECDKSNKVFPQKPQVDVHPSVYTGEKPYLCTQCGKVFTLKSNLITHQKIHTGQKPYKCSECGKAFFQRSDLFRHLRIHTGEKPYECSECGKGFSQNSDLSIHQKTHTGEKHYECNECGKAFTRKSALRMHQRIHTGEKPYVCADCGKAFIQKSHFNTHQRIHTGEKPYECSDCGKSFTKKSQLHVHQRIHTGEKPYICTECGKVFTHRTNLTTHQKTHTGEKPYMCAECGKAFTDQSNLIKHQKTHTGEKPYKCNGCGKAFIWKSRLKIHQKSHIGERHYECKDCGKAFIQKSTLSVHQRIHTGEKPYVCPECGKAFIQKSHFIAHHRIHTGEKPYECSDCGKCFTKKSQLRVHQKIHTGEKPNICAECGKAFTDRSNLITHQKIHTREKPYECGDCGKTFTWKSRLNIHQKSHTGERHYECSKCGKAFIQKATLSMHQIIHTGKKPYACTECQKAFTDRSNLIKHQKMHSGEKRYKASD
B2: MYF6, P23409 (protein)
chain: MMMDLFETGSYFFYLDGENVTLQPLEVAEGSPLYPGSDGTLSPCQDQMPPEAGSDSSGEEHVLAPPGLQPPHCPGQCLIWACKTCKRKSAPTDRRKAATLRERRRLKKINEAFEALKRRTVANPNQRLPKVEILRSAISYIERLQDLLHRLDQQEKMQELGVDPFSYRPKQENLEGADFLRTCSSQWPSVSDHSRGLVITAKEGGASIDSSASSSLRCLSSIVDSISSEERKLPCVEEVVEK
B3: FOXL1, Q12952 (protein)
chain: MSHLFDPRLPALAASPMLYLYGPERPGLPLAFAPAAALAASGRAETPQKPPYSYIALIAMAIQDAPEQRVTLNGIYQFIMDRFPFYHDNRQGWQNSIRHNLSLNDCFVKVPREKGRPGKGSYWTLDPRCLDMFENGNYRRRKRKPKPGPGAPEAKRPRAETHQRSAEAQPEAGSGAGGSGPAISRLQAAPAGPSPLLDGPSPPAPLHWPGTASPNEDAGDAAQGAAAVAVGQAARTGDGPGSPLRPASRSSPKSSDKSKSFSIDSILAGKQGQKPPSGDELLGGAKPGPGGRLGASLLAASSSLRPPFNASLMLDPHVQGGFYQLGIPFLSYFPLQVPDTVLHFQ
B4: PPARG, P37231 (protein)
chain: MGETLGDSPIDPESDSFTDTLSANISQEMTMVDTEMPFWPTNFGISSVDLSVMEDHSHSFDIKPFTTVDFSSISTPHYEDIPFTRTDPVVADYKYDLKLQEYQSAIKVEPASPPYYSEKTQLYNKPHEEPSNSLMAIECRVCGDKASGFHYGVHACEGCKGFFRRTIRLKLIYDRCDLNCRIHKKSRNKCQYCRFQKCLAVGMSHNAIRFGRMPQAEKEKLLAEISSDIDQLNPESADLRALAKHLYDSYIKSFPLTKAKARAILTGKTTDKSPFVIYDMNSLMMGEDKIKFKHITPLQEQSKEVAIRIFQGCQFRSVEAVQEITEYAKSIPGFVNLDLNDQVTLLKYGVHEIIYTMLASLMNKDGVLISEGQGFMTREFLKSLRKPFGDFMEPKFEFAVKFNALELDDSDLAIFIAVIILSGDRPGLLNVKPIEDIQDNLLQALELQLKLNHPESSQLFAKLLQKMTDLRQIVTEHVQLLQVIKKTETDMSLHPLLQEIYKDLY
B5: TULP4, Q9NRJ4 (protein)
chain: MYAAVEHGPVLCSDSNILCLSWKGRVPKSEKEKPVCRRRYYEEGWLATGNGRGVVGVTFTSSHCRRDRSTPQRINFNLRGHNSEVVLVRWNEPYQKLATCDADGGIFVWIQYEGRWSVELVNDRGAQVSDFTWSHDGTQALISYRDGFVLVGSVSGQRHWSSEINLESQITCGIWTPDDQQVLFGTADGQVIVMDCHGRMLAHVLLHESDGVLGMSWNYPIFLVEDSSESDTDSDDYAPPQDGPAAYPIPVQNIKPLLTVSFTSGDISLMNNYDDLSPTVIRSGLKEVVAQWCTQGDLLAVAGMERQTQLGELPNGPLLKSAMVKFYNVRGEHIFTLDTLVQRPIISICWGHRDSRLLMASGPALYVVRVEHRVSSLQLLCQQAIASTLREDKDVSKLTLPPRLCSYLSTAFIPTIKPPIPDPNNMRDFVSYPSAGNERLHCTMKRTEDDPEVGGPCYTLYLEYLGGLVPILKGRRISKLRPEFVIMDPRTDSKPDEIYGNSLISTVIDSCNCSDSSDIELSDDWAAKKSPKISRASKSPKLPRISIEARKSPKLPRAAQELSRSPRLPLRKPSVGSPSLTRREFPFEDITQHNYLAQVTSNIWGTKFKIVGLAAFLPTNLGAVIYKTSLLHLQPRQMTIYLPEVRKISMDYINLPVFNPNVFSEDEDDLPVTGASGVPENSPPCTVNIPIAPIHSSAQAMSPTQSIGLVQSLLANQNVQLDVLTNQTTAVGTAEHAGDSATQYPVSNRYSNPGQVIFGSVEMGRIIQNPPPLSLPPPPQGPMQLSTVGHGDRDHEHLQKSAKALRPTPQLAAEGDAVVFSAPQEVQVTKINPPPPYPGTIPAAPTTAAPPPPLPPPQPPVDVCLKKGDFSLYPTSVHYQTPLGYERITTFDSSGNVEEVCRPRTRMLCSQNTYTLPGPGSSATLRLTATEKKVPQPCSSATLNRLTVPRYSIPTGDPPPYPEIASQLAQGRGAAQRSDNSLIHATLRRNNREATLKMAQLADSPRAPLQPLAKSKGGPGGVVTQLPARPPPALYTCSQCSGTGPSSQPGASLAHTASASPLASQSSYSLLSPPDSARDRTDYVNSAFTEDEALSQHCQLEKPLRHPPLPEAAVTLKRPPPYQWDPMLGEDVWVPQERTAQTSGPNPLKLSSLMLSQGQHLDVSRLPFISPKSPASPTATFQTGYGMGVPYPGSYNNPPLPGVQAPCSPKDALSPTQFAQQEPAVVLQPLYPPSLSYCTLPPMYPGSSTCSSLQLPPVALHPWSSYSACPPMQNPQGTLPPKPHLVVEKPLVSPPPADLQSHLGTEVMVETADNFQEVLSLTESPVPQRTEKFGKKNRKRLDSRAEEGSVQAITEGKVKKEARTLSDFNSLISSPHLGREKKKVKSQKDQLKSKKLNKTNEFQDSSESEPELFISGDELMNQSQGSRKGWKSKRSPRAAGELEEAKCRRASEKEDGRLGSQGFVYVMANKQPLWNEATQVYQLDFGGRVTQESAKNFQIELEGRQVMQFGRIDGSAYILDFQYPFSAVQAFAVALANVTQRLK
B6: PGBD1, Q96JS3 (protein)
chain: MYEALPGPAPENEDGLVKVKEEDPTWEQVCNSQEGSSHTQEICRLRFRHFCYQEAHGPQEALAQLRELCHQWLRPEMHTKEQIMELLVLEQFLTILPKELQPCVKTYPLESGEEAVTVLENLETGSGDTGQQASVYIQGQDMHPMVAEYQGVSLECQSLQLLPGITTLKCEPPQRPQGNPQEVSGPVPHGSAHLQEKNPRDKAVVPVFNPVRSQTLVKTEEETAQAVAAEKWSHLSLTRRNLCGNSAQETVMSLSPMTEEIVTKDRLFKAKQETSEEMEQSGEASGKPNRECAPQIPCSTPIATERTVAHLNTLKDRHPGDLWARMHISSLEYAAGDITRKGRKKDKARVSELLQGLSFSGDSDVEKDNEPEIQPAQKKLKVSCFPEKSWTKRDIKPNFPSWSALDSGLLNLKSEKLNPVELFELFFDDETFNLIVNETNNYASQKNVSLEVTVQEMRCVFGVLLLSGFMRHPRREMYWEVSDTDQNLVRDAIRRDRFELIFSNLHFADNGHLDQKDKFTKLRPLIKQMNKNFLLYAPLEEYYCFDKSMCECFDSDQFLNGKPIRIGYKIWCGTTTQGYLVWFEPYQEESTMKVDEDPDLGLGGNLVMNFADVLLERGQYPYHLCFDSFFTSVKLLSALKKKGVRATGTIRENRTEKCPLMNVEHMKKMKRGYFDFRIEENNEIILCRWYGDGIISLCSNAVGIEPVNEVSCCDADNEEIPQISQPSIVKVYDECKEGVAKMDQIISKYRVRIRSKKWYSILVSYMIDVAMNNAWQLHRACNPGASLDPLDFRRFVAHFYLEHNAHLSD
B7: MYOG, P15173 (protein)
chain: MELYETSPYFYQEPRFYDGENYLPVHLQGFEPPGYERTELTLSPEAPGPLEDKGLGTPEHCPGQCLPWACKVCKRKSVSVDRRRAATLREKRRLKKVNEAFEALKRSTLLNPNQRLPKVEILRSAIQYIERLQALLSSLNQEERDLRYRGGGGPQPGVPSECSSHSASCSPEWGSALEFSANPGDHLLTADPTDAHNLHSLTSIVDSITVEDVSVAFPDETMPN
B8: FOXP4, Q8IVH2 (protein)
chain: MMVESASETIRSAPSGQNGVGSLSGQADGSSGGATGTTASGTGREVTTGADSNGEMSPAELLHFQQQQALQVARQFLLQQASGLSSPGNNDSKQSASAVQVPVSVAMMSPQMLTPQQMQQILSPPQLQALLQQQQALMLQQLQEYYKKQQEQLHLQLLTQQQAGKPQPKEALGNKQLAFQQQLLQMQQLQQQHLLNLQRQGLVSLQPNQASGPLQTLPQAAVCPTDLPQLWKGEGAPGQPAEDSVKQEGLDLTGTAATATSFAAPPKVSPPLSHHTLPNGQPTVLTSRRDSSSHEETPGSHPLYGHGECKWPGCETLCEDLGQFIKHLNTEHALDDRSTAQCRVQMQVVQQLEIQLAKESERLQAMMAHLHMRPSEPKPFSQPLNPVPGSSSFSKVTVSAADSFPDGLVHPPTSAAAPVTPLRPPGLGSASLHGGGPARRRSSDKFCSPISSELAQNHEFYKNADVRPPFTYASLIRQAILETPDRQLTLNEIYNWFTRMFAYFRRNTATWKNAVRHNLSLHKCFVRVENVKGAVWTVDEREYQKRRPPKMTGSPTLVKNMISGLSYGALNASYQAALAESSFPLLNSPGMLNPGSASSLLPLSHDDVGAPVEPLPSNGSSSPPRLSPPQYSHQVQVKEEPAEAEEDRQPGPPLGAPNPSASGPPEDRDLEEELPGEELS

The list shows a part of the results. Binding of human transcription factors and regulators to the viral nucleoprotein by AlphaScreen, crude cell-free proteins, amounts not normalised, one pass. Fold of the Venus control; higher = more signal. No active / inactive call. Single-pass screen; sequences are the whole Swiss-Prot entries looked up by name.

For this assay, the target named is nucleoprotein N of Crimean-Congo hemorrhagic fever virus. The assay can be described thus: AlphaScreen luminescence signal relative to Venus negative control (fold); higher = stronger binding to CCHFV N. The method, then: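 AlphaScreen binding of cell-free made, FLAG-GST-tagged human transcription factors and regulators (crude translation products) to biotinylated N protein; signal as fold of the FLAG-GST-Venus control. One pass.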
(Alpha assays give light when donor and acceptor beads are brought close together.)
B1 returned an AlphaScreen luminescence signal of 3.07.
In turn, B2 registered an AlphaScreen luminescence signal of 2.28.
To B3 belongs 1.49; to B4, 1.95.
In the case of B5 it was 2.93.
In the case of B6 it was 1.72.
B7 gave an AlphaScreen luminescence signal of 3.07.
Regarding B8, the AlphaScreen luminescence signal amounted to 1.95.
